# The list shows a part of the results. The energies were worked out here from pooled read counts, against the library average; single values are noisy.
# Molecular target: T1, Pho4 (S. cerevisiae) (UniProt P07270)
# T1 sequence: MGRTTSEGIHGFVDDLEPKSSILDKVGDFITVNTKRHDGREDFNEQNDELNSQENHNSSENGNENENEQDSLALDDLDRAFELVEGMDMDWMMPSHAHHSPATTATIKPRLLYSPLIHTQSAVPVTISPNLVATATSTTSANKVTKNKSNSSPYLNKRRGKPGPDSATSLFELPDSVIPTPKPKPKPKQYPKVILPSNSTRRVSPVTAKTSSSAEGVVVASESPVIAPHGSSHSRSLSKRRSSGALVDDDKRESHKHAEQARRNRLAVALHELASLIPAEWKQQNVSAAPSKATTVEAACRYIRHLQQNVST
# Experiment: relative binding free energy (BET-seq); higher = weaker binding
# Conditions: reference: library average
row,Sequence,relative binding free energy [kcal/mol]
1,TTTGACACGTGTCCGT,0.02
2,TGTCACACGTGGTTGT,0.12
3,TTAGGCACGTGTGACG,-0.03
4,TGCGGCACGTGTAGAT,0.14
5,TGGTTCACGTGTCCAT,0.22
6,GAAGTCACGTGTGTTA,0.18
7,TGTAGCACGTGAAATT,0.22
8,CTGGTCACGTGTTTTG,0.07
9,TTTGTCACGTGTAGTC,0.07
10,TTATTCACGTGTTTTT,0.28
11,ATGTACACGTGGGCTG,0.03
12,TGGTACACGTGCGCGG,-0.06
13,ACATTCACGTGTTCGG,0.43
14,ATGTACACGTGAGGGC,0.2
15,GTGTTCACGTGATTGT,0.37
16,GACGACACGTGGGGGT,-0.07
17,TTAGGCACGTGGGGGT,-0.2
18,TGGGGCACGTGTGAGT,0.02
19,CTTGTCACGTGTTGTA,0.15
20,AGTGTCACGTGTGGAC,0.07
21,TAGGTCACGTGTTGAT,0.15
22,CGTTGCACGTGTGTTT,0
23,TTTTACACGTGGTCTA,0.11

row,Sequence,relative binding free energy [kcal/mol]
1,TTGGGCACGTGAATAT,0.17
2,GTGTGCACGTGTCGTG,0.03
3,AGTCGCACGTGAATTG,0.13
4,TGCTACACGTGTTTGA,0.08
5,AGTTTCACGTGTGGCA,0.3
6,CATATCACGTGGGTTA,0.01
7,ACTTGCACGTGTGCGG,-0.08
8,TTCGTCACGTGGAGGC,0.02
9,TTGCTCACGTGTTTGG,0.3
10,TTTTACACGTGGACGG,0.24
11,AGTAGCACGTGGGCGG,-0.12
12,AGGTGCACGTGCGGAG,-0.07
13,TGTGGCACGTGTCGTG,-0.14
14,GGTACCACGTGCGGTG,-0.11
15,ATTGTCACGTGAAGTG,0.43
16,TGGTACACGTGGTCCT,0.12
17,GGTTGCACGTGTGATG,0.1
18,TTCTTCACGTGGCGGC,0.48
19,GTGATCACGTGCGTGT,0.02
20,TGGTTCACGTGTGTTT,0.28
21,GGTGACACGTGTGTGG,0.05
22,TGGGACACGTGGTTAG,-0.07
23,GATGTCACGTGACATG,0.29

row,Sequence,relative binding free energy [kcal/mol]
1,TACGTCACGTGTACGG,0.19
2,GGTAGCACGTGCGCTT,-0.02
3,TGTATCACGTGGGAGA,0.11
4,GATTACACGTGATAGT,0.3
5,TTGTGCACGTGCGTGG,-0.13
6,GCGGTCACGTGAGCGG,0.32
7,GTGGACACGTGTTGTG,0.1
8,ATTAACACGTGATTTT,0.16
9,GTTGTCACGTGAGTGA,0.39
10,CCGGGCACGTGGATGT,-0.08
11,GAATTCACGTGAGGGT,0.45
12,GGTGACACGTGCGAGG,0.05
13,GTAAGCACGTGGTCGG,-0.12
14,ATGCGCACGTGAATTT,0.24
15,ATAGTCACGTGCGGTA,0.04
16,GCGATCACGTGAGGGT,0.38
17,CATTGCACGTGGATGG,-0.04
18,GTAATCACGTGTTGAA,0.16
19,CGGGGCACGTGGTGTA,-0.09
20,TGAGTCACGTGTGATC,0.11
21,TCGTACACGTGTAGTG,0.06
22,GGGATCACGTGCGTAG,0.14
23,TAGCACACGTGGGGTT,-0.18

row,Sequence,relative binding free energy [kcal/mol]
1,TGTCGCACGTGATGAG,0.12
2,AAGATCACGTGGTGGG,0.06
3,GCGGGCACGTGTCTGG,-0.09
4,AACGGCACGTGGGCGT,-0.18
5,GGCCGCACGTGGGGGT,-0.33
6,TCGGACACGTGTAGTA,0.22
7,GGGGACACGTGGAGTC,0.15
8,AAAAGCACGTGGTGCT,-0.07
9,CGTGGCACGTGCTTTG,-0.1
10,TTATGCACGTGTTCGA,-0.13
11,TGTTTCACGTGATATA,0.3
12,TTTATCACGTGTGTTG,0.17
13,TCTGCCACGTGGTTTG,-0.08
14,AGTGGCACGTGGGCGT,-0.31
15,CTGCGCACGTGAGTTG,0.14
16,TGTTCCACGTGCGGTG,0.02
17,GGTATCACGTGGTTCT,0.03
18,AAGATCACGTGAAAGG,0.36
19,CGTGTCACGTGTTTGC,-0.04
20,TTAGTCACGTGAGTTC,0.35
21,TATGGCACGTGTTGTC,-0.06
22,TGGTGCACGTGAATGA,0.35
23,ATGAGCACGTGAAGTG,0.29

row,Sequence,relative binding free energy [kcal/mol]
1,ATATACACGTGTCTGT,0.03
2,AGTGTCACGTGACATG,0.11
3,TTGTTCACGTGTCTAG,0.32
4,TAAGACACGTGTGGAT,0.08
5,GGGGGCACGTGAACGG,0.18
6,TAATACACGTGATATT,0.14
7,ATAGTCACGTGCGAGG,0
8,GGTAACACGTGTTTAA,0.05
9,AGGGGCACGTGGTGCA,-0.25
10,TGTTTCACGTGAGGTC,0.43
11,AAGTTCACGTGTACGT,0.28
12,TCTTGCACGTGATCGT,0.14
13,CGTGTCACGTGGGTAC,-0.02
14,GGGTCCACGTGTAGAG,0.24
15,GGTTGCACGTGGGGGT,-0.08
16,GGGAACACGTGAGGAT,0.32
17,GATGGCACGTGTGCGC,0.02
18,AGTTTCACGTGATGTC,0.18
19,GATTACACGTGGTGAG,0.16
20,TGAGGCACGTGAAGGA,0.16
21,GCTCGCACGTGTAGGG,0.09
22,TGTATCACGTGCGAAG,0.11
23,ATTGTCACGTGATTAA,0.31
